{"source": "the supplement of paper PMC11876631", "proteins": {"B1": {"name": "cysC V103P (protein)", "chain": "MALHDENVVWHSHPVTVQQRELHHGHRGVVLWFTGLSGSGKSTVAGALEEALHKLGVSTYLLDGDNVRHGLCSDLGFSDADRKENIRRVGEVANLMVEAGLVPLTAFISPHRAERQMVRERVGEGRFIEVFVDTPLAICEARDPKGLYKKARAGELRNFTGIDSVYEAPESAEIHLNGEQLVTNLVQQLLDLLRQNDIIRS"}, "B2": {"name": "cysC L104A (protein)", "chain": "B1 chain with P103V, L104A"}, "B3": {"name": "cysC L104W (protein)", "chain": "B1 chain with P103V, L104W"}, "B4": {"name": "cysC L104Q (protein)", "chain": "B1 chain with P103V, L104Q"}, "B5": {"name": "cysC L104D (protein)", "chain": "B1 chain with P103V, L104D"}, "B6": {"name": "cysC L104P (protein)", "chain": "B1 chain with P103V, L104P"}, "B7": {"name": "cysC L48A (protein)", "chain": "B1 chain with L48A, P103V"}, "B8": {"name": "cysC L48Q (protein)", "chain": "B1 chain with L48Q, P103V"}, "B9": {"name": "cysC L48D (protein)", "chain": "B1 chain with L48D, P103V"}, "B10": {"name": "cysC V118A (protein)", "chain": "B1 chain with P103V, V118A"}, "B11": {"name": "cysC V118W (protein)", "chain": "B1 chain with P103V, V118W"}, "B12": {"name": "cysC V118Q (protein)", "chain": "B1 chain with P103V, V118Q"}, "B13": {"name": "cysC V118P (protein)", "chain": "B1 chain with P103V, V118P"}, "B14": {"name": "cysD I20A (protein)", "chain": "MDQIRLTHLRQLEAESIHIAREVAAEFSNPVMLYSIGKDSSVMLHLARKAFYPGTLPFPLLHVDTGWKFREMYEFRDRTAKAYGCELLVHKNPEGVAMGINPFVHGSAKHTDIMKTEGLKQALNKYGFDAAFGGARRDEEKSRAKERIYSFRDRFHRWDPKNQRPELWHNYNGQINKGESIRVFPLSNWTEQDIWQYIWLENIDIVPLYLAAERPVLERDGMLMMIDDNRIDLQPGEVIKKRMVRFRTLGCWPLTGAVESNAQTLPEIIEEMLVSTTSERQGRVIDRDQAGSMELKKRQGYF"}, "B15": {"name": "cysD I20W (protein)", "chain": "B14 chain with A20W"}, "B16": {"name": "cysD I20Q (protein)", "chain": "B14 chain with A20Q"}, "B17": {"name": "accA I116Q (protein)", "chain": "MSLNFLDFEQPIAELEAKIDSLTAVSRQDEKLDINIDEEVHRLREKSVELTRKIFADLGAWQIAQLARHPQRPYTLDYVRLAFDEFDELAGDRAYADDKAIVGGIARLDGRPVMIQGHQKGRETKEKIRRNFGMPAPEGYRKALRLMQMAERFKMPIITFIDTPGAYPGVGAEERGQSEAIARNLREMSRLGVPVVCTVIGEGGSGGALAIGVGDKVNMLQYSTYSVISPEGCASILWKSADKAPLAAEAMGIIAPRLKELKLIDSIIPEPLGGAHRNPEAMAASLKAQLLADLADLDVLSTEDLKNRRYQRLMSYGYA"}, "B18": {"name": "cysD I20P (protein)", "chain": "B14 chain with A20P"}}, "note": "Positions count from the first letter of the chain named. Names may count otherwise. ± gives the standard deviation of the averaged measurements. Laboratory Escherichia coli strains with one amino-acid change in an essential protein, pooled on minimal glucose agar with carbenicillin or gentamicin at twice the control MIC (plus kanamycin and chloramphenicol for the plasmids), 48 h. Fold change of barcode share against drug-free plates; higher = less susceptible. Active = above 20 in both replicates (the paper's putatively resistant). '<' = one read or none on drug, '>' = one read or none on a drug-free plate. Shares are relative, so most strains fall below 1 when a few take over. Listed are strains with at least 15 reads on both drug-free plates, and hits; most hits rest on fewer reference reads. Replicate rank correlation about 0.5. Edits are read from barcodes."}
{"target": "Escherichia coli (laboratory strain)", "test": "barcode share on antibiotic plates over drug-free plates; higher = less susceptible", "conditions": "antibiotic: carbenicillin; 2× MIC (3.1 µg/mL)", "method": "(§1)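 A pool of E. coli strains, each edited to carry one amino-acid change in an essential protein, was grown for 48 h on minimal glucose agar with or without antibiotic; strain barcodes were sequenced; mean of two replicates.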"}
{"protein": "B1", "fold change of barcode share": "0.82 ± 0.18"}
{"protein": "B2", "fold change of barcode share": "0.488 ± 0.2"}
{"protein": "B3", "fold change of barcode share": "> 35.6 [active]"}
{"protein": "B4", "fold change of barcode share": "1.28 ± 0.22"}
{"protein": "B5", "fold change of barcode share": "> 57.3 [active]"}
{"protein": "B6", "fold change of barcode share": "1.06 ± 0.12"}
{"protein": "B7", "fold change of barcode share": "0.425 ± 0.052"}
{"protein": "B8", "fold change of barcode share": "0.689 ± 0.13"}
{"protein": "B9", "fold change of barcode share": "1.62 ± 0.42"}
{"protein": "B10", "fold change of barcode share": "1.07 ± 0.047"}
{"protein": "B11", "fold change of barcode share": "1.38 ± 0.062"}
{"protein": "B12", "fold change of barcode share": "25.4 [active]"}
{"protein": "B13", "fold change of barcode share": "4.49 ± 2.4"}
{"protein": "B14", "fold change of barcode share": "1.36 ± 0.79"}
{"protein": "B15", "fold change of barcode share": "0.648 ± 0.18"}
{"protein": "B16", "fold change of barcode share": "0.674 ± 0.054"}
{"protein": "B17", "fold change of barcode share": "0.205 ± 0.0083"}
{"protein": "B18", "fold change of barcode share": "> 44.7 [active]"}
{"target": "Escherichia coli (laboratory strain)", "test": "barcode share on antibiotic plates over drug-free plates; higher = less susceptible", "conditions": "antibiotic: gentamicin; 2× MIC (MIC 0.45 µg/mL)", "method": "as §1"}
{"protein": "B1", "fold change of barcode share": "0.0176 ± 0.013"}
{"protein": "B2", "fold change of barcode share": "0.00683 ± 0.0043"}
{"protein": "B4", "fold change of barcode share": "0.0556 ± 0.053"}
{"protein": "B8", "fold change of barcode share": "0.034 ± 0.033"}
{"protein": "B9", "fold change of barcode share": "< 0.0167"}
{"protein": "B10", "fold change of barcode share": "0.0336 ± 0.033"}
{"protein": "B11", "fold change of barcode share": "0.048 ± 0.0014"}
{"protein": "B14", "fold change of barcode share": "< 0.0187"}
{"protein": "B17", "fold change of barcode share": "< 0.0112"}
